According to PubChem BioAssay AID651820 (National Center for Advancing Translational Sciences (NCATS), 2012):
Out of some 340,000 compounds screened, about 12,000 (3.5%) were called active. Inconclusive results, whose numbers are uncertain, are shown with a selection of clear calls. Calls come from the whole dose curve; as a rule, active = well fitted inhibition curve with a large enough effect; inconclusive = small, poorly fitted or top-dose-only effect, or another doubt; inactive = no such curve, though single readings can be large or run the other way. Potencies of inconclusive entries are left out as doubtful fits.
% is set by controls: 0 for no effect and ±100 for the full control effect; potency is the fitted concentration of half-maximal effect; tags give direction and shape of the fitted curve.

Assay: qHTS Assay for Inhibitors of Hepatitis C Virus (HCV)
Conditions: Huh7.5.1 HCVcc-Cre (HCVcc is cell-culture hepatitis C virus) infection, luciferase reporter, 44 h; activity change, negative = inhibition: at 41.8 µM (top of the series) unless noted
Method in brief: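 Infectious HCVcc-Cre (~0.5 moi) was added to cells just after compound, with cells seeded 4 h earlier at 1,000 per well. Luciferase activity after 44 h culture reported infection; substrate was incubated 15 min at room temperature before reading.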
In the case of `O=C(c1ccc(F)cc1)N1CCCC(c2nc(-c3ccncc3)no2)C1` (stereo unspecified), the Potency is reported as inconclusive [inhibitor, single point]. For `CCc1ccc(OCC(=O)NNC(=O)c2cnccn2)c(Br)c1`, the “activity change, negative = inhibition” value was inactive: 0.669%. With `CC(C)OCCCNc1nc2c(-c3ccccc3)nnn2c2ccccc12` the activity change, negative = inhibition was inactive: 15.7% [at 8.37 µM]. For `CCSc1ncc(Cl)c(C(=O)Nc2ccccc2)n1`, the “activity change, negative = inhibition” value was inactive: -7.68%. For `C=CCNc1nc(N2CCCCC2)c(C#N)c2c1CN(Cc1ccccc1)CC2`, the Potency was inconclusive [inhibitor, partial curve]. With `COC(=O)c1ccc(CN2CCCC(C(=O)Nc3cccc(-n4cccn4)c3)C2)cc1` (stereo unspecified) the Potency was inconclusive [inhibitor, single point]. In the case of `COc1ccc(CN2CCC(N3CC(C)OC(C)C3)CC2)c(OC)c1OC` (stereo unspecified), the “activity change, negative = inhibition” value is reported as inactive: -3.68%. With `CCN(CC(=O)NCC1CCCO1)S(=O)(=O)c1ccc2ccccc2c1` (stereo unspecified) the Potency was inconclusive [inhibitor, single point]. With `c1cc2c(cc1[C@H]1OC[C@H]3[C@@H]1CO[C@@H]3c1ccc3c(c1)OCO3)OCO2` the Potency was inconclusive [inhibitor, full curve]. With `COCCn1c(=NC(=O)c2cccs2)sc2cc(NC(C)=O)ccc21` the Potency was inconclusive [inhibitor, partial curve]. In the case of `Cn1c(SCC(=O)N/N=C/c2cccs2)nc2ccccc21`, the “activity change, negative = inhibition” value is reported as inactive: 7.18%. In the case of `CCCCc1cn(C[C@H]2CC[C@@H]([C@@H]3CC[C@H](Cn4cc(CCCC)nn4)O3)O2)nn1`, the Potency is reported as inconclusive [inhibitor, single point]. In the case of `CN1CCN(CCCNc2nc3ccccc3c3nc(-c4ccccc4)nn23)CC1`, the Potency is reported as inconclusive [inhibitor, partial curve]. In the case of `CN(CCNC(=O)c1cn(C)c2ccc(S(=O)(=O)N3CCCC3)cc2c1=O)CCc1ccccc1`, the Potency is reported as inconclusive [inhibitor, single point]. With `CCn1c(=S)sc2c(=O)[nH]c(SCC(=O)Nc3cc(OC)ccc3OC)nc21` the Potency was inconclusive [inhibitor, partial curve]. With `CCOC(=O)N1CCN(c2ncnc3scc(-c4ccccc4)c23)CC1` the Potency was active: 8.91 µM. In the case of `COc1ccc(C(C(=O)NCC2CCCO2)N(C(=O)CNC(=O)c2ccco2)c2cc(C)ccc2C)cc1OC` (stereo unspecified), the “activity change, negative = inhibition” value is reported as inactive: 7.31%. In the case of `O=C(CC1N=C2c3ccccc3N=C(SCc3ccc(Cl)cc3)N2C1=O)NCc1ccco1` (stereo unspecified), the Potency is reported as inconclusive [inhibitor, single point]. For `CC(C)c1c(C(=O)N/N=C/c2ccc(C(F)(F)F)cc2)nnn1-c1nonc1N`, the Potency was active: 5.62 µM. With `Nc1ccn([C@@H]2O[C@H](CO)[C@@H](O)C2O)c(=O)n1` (stereo partly specified) the Potency was inconclusive [inhibitor, partial curve]. For `CCOC(=O)c1sc(NC(=O)CSc2nnnn2-c2ccc(C)cc2)c(C(=O)OCC)c1C`, the Potency was inconclusive [inhibitor, partial curve]. With `OC1CCCC1` the “activity change, negative = inhibition” value was inactive: 10.5%. For `COc1c(C)cc(C(=O)C2CCCN(Cc3cccc4nccnc34)C2)cc1C` (stereo unspecified), the Potency was inconclusive [inhibitor, single point]. In the case of `O=C(CCN1CCN(C(c2ccccc2)c2ccccc2)CC1)N/N=C/c1ccc(O)cc1O`, the Potency is reported as active: 7.94 µM. In the case of `Nc1nc(SCC(=O)Nc2cccc(F)c2)n[nH]1`, the “activity change, negative = inhibition” value is reported as inactive: -1.15%. For `Cc1cccc(N2CCN(C(=O)CCN3C(=S)NC(C)(C)CC3C)CC2)c1C` (stereo unspecified), the Potency was inconclusive [inhibitor, single point]. For `COc1ccc(COc2ccccc2C(=O)NCc2ccccc2)cc1F`, the Potency was active: 10 µM. For `CCC(=O)N1CCc2cc(S(=O)(=O)NCCC(=O)N3CCN(c4cccc(OC)c4)CC3)ccc21`, the Potency was inconclusive [inhibitor, single point]. In the case of `COc1ccc(NS(=O)(=O)c2ccc(C(=O)N3CCN(Cc4ccccc4)CC3)cc2)cc1`, the Potency is reported as active: 11.2 µM. For `COc1cc2c(cc1OC)CN(C(=O)/C=C/c1ccccc1[N+](=O)[O-])CC2`, the Potency was inconclusive [inhibitor, single point]. In the case of `O=Cc1c(NCc2cccc(F)c2)c2ccccc2[nH]c1=O`, the “activity change, negative = inhibition” value is reported as inactive: -4.6%. In the case of `COc1ccc(NC(=O)c2cccc(OS(=O)(=O)N(C)C)c2)cc1`, the Potency is reported as inconclusive [inhibitor, partial curve]. With `Cc1ccc(Cl)cc1N1CCN(C(=O)C2CCN(S(=O)(=O)c3c(C)nn(C)c3C)CC2)CC1` the Potency was active: 11.2 µM. With `CCNC(=S)N(Cc1ccc2c(c1)OCO2)C1CC(=O)N(c2ccc(OC)cc2)C1=O` (stereo unspecified) the Potency was inconclusive [inhibitor, single point]. For `CC(C)(C)C(=O)Nc1cc(C(F)(F)F)ccc1-n1ccnc1`, the Potency was inconclusive [inhibitor, single point]. In the case of `Cc1c(Cl)cccc1NC(=S)NCc1ccco1`, the Potency is reported as inconclusive [inhibitor, single point]. With `CCn1c(=O)c(CCC(=O)NCC2CCCO2)c(C)c2c(C)nn(-c3ccccc3)c21` (stereo unspecified) the Potency was active: 12.6 µM. With `CCc1cc2c(SCC#N)ncnc2s1` the Potency was inconclusive [inhibitor, partial curve, poor fit]. With `CCOC(=O)c1cnc(-c2ccccc2)nc1N(C)C` the Potency was inconclusive [inhibitor, single point]. In the case of `O=C1NC(=S)N/C1=C\C=C\c1ccccc1`, the “activity change, negative = inhibition” value is reported as inactive: 6.51%. With `CCC1CCCCN1C(=O)CSc1nc2ncccc2[nH]1` (stereo unspecified) the “activity change, negative = inhibition” value was inactive: 0.286%. With `Cn1c(=O)c2c(nc(NCc3ccccc3)n2CC(N)=O)n(C)c1=O` the “activity change, negative = inhibition” value was inactive: 9.34%. In the case of `Cc1[nH]c2ccccc2c1C(=O)C(=O)N1c2ccccc2CC1C` (stereo unspecified), the Potency is reported as inconclusive [inhibitor, single point]. For `CCCCSCCCNC(=O)c1ccc2c(c1)N(CC)C(=O)c1ccccc1S2=O` (stereo unspecified), the “activity change, negative = inhibition” value was inactive: -27.1%. In the case of `Cc1cc(C)c(COCc2cc(/C=N/O)c(C)cc2C)cc1/C=N/O`, the Potency is reported as inconclusive [inhibitor, partial curve, poor fit]. For `COC(=O)c1c(NC(=O)Cc2ccccc2)sc2c1C(C(=O)OC)CC2` (stereo unspecified), the Potency was inconclusive [inhibitor, full curve, poor fit].
